From paper PMC9911399, “Two distinct binding modes provide the RNA-binding protein RbFox with extraordinary sequence specificity” come the findings set out here.

The chains are these.
B1: AACGUGA (DNA:RNA)
RNA: GGGAGACCGGAAUUCAGAUUGUCCAACGUGAUUAAAUCCCGUCGUAGCCACCA
DNA 1: CAATCTGAATTCCGGTCTCCC
DNA 2: TGGTGGCTACGACGGGATT
B2: CGUACGA (DNA:RNA)
RNA: B1 RNA with A25C, A26G, C27U, G28A, U29C
DNA 1: CAATCTGAATTCCGGTCTCCC
DNA 2: TGGTGGCTACGACGGGATT
B3: CGGGUGU (DNA:RNA)
RNA: B1 RNA with A25C, A26G, C27G, A31U
DNA 1: CAATCTGAATTCCGGTCTCCC
DNA 2: TGGTGGCTACGACGGGATT
B4: CGGGGGA (DNA:RNA)
RNA: B1 RNA with A25C, A26G, C27G, U29G
DNA 1: CAATCTGAATTCCGGTCTCCC
DNA 2: TGGTGGCTACGACGGGATT
B5: AAUCUGU (DNA:RNA)
RNA: B1 RNA with C27U, G28C, A31U
DNA 1: CAATCTGAATTCCGGTCTCCC
DNA 2: TGGTGGCTACGACGGGATT
B6: CCCUCAG (DNA:RNA)
RNA: B1 RNA with A25C, A26C, G28U, U29C, G30A, A31G
DNA 1: CAATCTGAATTCCGGTCTCCC
DNA 2: TGGTGGCTACGACGGGATT
B7: GGUUCAU (DNA:RNA)
RNA: GGGAGACCGGAAUUCAGAUUGUCCGGUUCAUUUAAAUCCCGUCGUAGCCACCA
DNA 1: CAATCTGAATTCCGGTCTCCC
DNA 2: TGGTGGCTACGACGGGATT
B8: GUGUCUG (DNA:RNA)
RNA: B7 RNA with G26U, U27G, A30U, U31G
DNA 1: CAATCTGAATTCCGGTCTCCC
DNA 2: TGGTGGCTACGACGGGATT
B9: UAACACU (DNA:RNA)
RNA: B1 RNA with A25U, C27A, G28C, U29A, G30C, A31U
DNA 1: CAATCTGAATTCCGGTCTCCC
DNA 2: TGGTGGCTACGACGGGATT
B10: AAGUUUA (DNA:RNA)
RNA: B1 RNA with C27G, G28U, G30U
DNA 1: CAATCTGAATTCCGGTCTCCC
DNA 2: TGGTGGCTACGACGGGATT
B11: UGUCCCC (DNA:RNA)
RNA: B7 RNA with G25U, U28C, A30C, U31C
DNA 1: CAATCTGAATTCCGGTCTCCC
DNA 2: TGGTGGCTACGACGGGATT
B12: GGCGAAA (DNA:RNA)
RNA: B1 RNA with A25G, A26G, U29A, G30A
DNA 1: CAATCTGAATTCCGGTCTCCC
DNA 2: TGGTGGCTACGACGGGATT
B13: UGGACAC (DNA:RNA)
RNA: B7 RNA with G25U, U27G, U28A, U31C
DNA 1: CAATCTGAATTCCGGTCTCCC
DNA 2: TGGTGGCTACGACGGGATT
B14: CAAAUAG (DNA:RNA)
RNA: B1 RNA with A25C, C27A, G28A, G30A, A31G
DNA 1: CAATCTGAATTCCGGTCTCCC
DNA 2: TGGTGGCTACGACGGGATT
B15: ACAGUCG (DNA:RNA)
RNA: B1 RNA with A26C, C27A, G30C, A31G
DNA 1: CAATCTGAATTCCGGTCTCCC
DNA 2: TGGTGGCTACGACGGGATT
B16: GUGUGGU (DNA:RNA)
RNA: B7 RNA with G26U, U27G, C29G, A30G
DNA 1: CAATCTGAATTCCGGTCTCCC
DNA 2: TGGTGGCTACGACGGGATT
B17: AAUCAAU (DNA:RNA)
RNA: B7 RNA with G25A, G26A, U28C, C29A
DNA 1: CAATCTGAATTCCGGTCTCCC
DNA 2: TGGTGGCTACGACGGGATT
B18: GACUUCG (DNA:RNA)
RNA: B1 RNA with A25G, G28U, G30C, A31G
DNA 1: CAATCTGAATTCCGGTCTCCC
DNA 2: TGGTGGCTACGACGGGATT
B19: UCGCAUA (DNA:RNA)
RNA: B1 RNA with A25U, A26C, C27G, G28C, U29A, G30U
DNA 1: CAATCTGAATTCCGGTCTCCC
DNA 2: TGGTGGCTACGACGGGATT
B20: AAAAUCA (DNA:RNA)
RNA: B1 RNA with C27A, G28A, G30C
DNA 1: CAATCTGAATTCCGGTCTCCC
DNA 2: TGGTGGCTACGACGGGATT
B21: CGAUCAG (DNA:RNA)
RNA: B7 RNA with G25C, U27A, U31G
DNA 1: CAATCTGAATTCCGGTCTCCC
DNA 2: TGGTGGCTACGACGGGATT
B22: AGUACUA (DNA:RNA)
RNA: B7 RNA with G25A, U28A, A30U, U31A
DNA 1: CAATCTGAATTCCGGTCTCCC
DNA 2: TGGTGGCTACGACGGGATT
B23: CCGGAAA (DNA:RNA)
RNA: B1 RNA with A25C, A26C, C27G, U29A, G30A
DNA 1: CAATCTGAATTCCGGTCTCCC
DNA 2: TGGTGGCTACGACGGGATT
B24: UCUCAUG (DNA:RNA)
RNA: B7 RNA with G25U, G26C, U28C, C29A, A30U, U31G
DNA 1: CAATCTGAATTCCGGTCTCCC
DNA 2: TGGTGGCTACGACGGGATT
B25: UAUUCCG (DNA:RNA)
RNA: B7 RNA with G25U, G26A, A30C, U31G
DNA 1: CAATCTGAATTCCGGTCTCCC
DNA 2: TGGTGGCTACGACGGGATT
B26: CCUUAUU (DNA:RNA)
RNA: B7 RNA with G25C, G26C, C29A, A30U
DNA 1: CAATCTGAATTCCGGTCTCCC
DNA 2: TGGTGGCTACGACGGGATT
B27: UCGAUCU (DNA:RNA)
RNA: B1 RNA with A25U, A26C, C27G, G28A, G30C, A31U
DNA 1: CAATCTGAATTCCGGTCTCCC
DNA 2: TGGTGGCTACGACGGGATT
B28: CGAAUGC (DNA:RNA)
RNA: B1 RNA with A25C, A26G, C27A, G28A, A31C
DNA 1: CAATCTGAATTCCGGTCTCCC
DNA 2: TGGTGGCTACGACGGGATT
B29: ACAUCGU (DNA:RNA)
RNA: B7 RNA with G25A, G26C, U27A, A30G
DNA 1: CAATCTGAATTCCGGTCTCCC
DNA 2: TGGTGGCTACGACGGGATT
B30: UCGCGUA (DNA:RNA)
RNA: B1 RNA with A25U, A26C, C27G, G28C, U29G, G30U
DNA 1: CAATCTGAATTCCGGTCTCCC
DNA 2: TGGTGGCTACGACGGGATT
B31: AUGCACC (DNA:RNA)
RNA: B1 RNA with A26U, C27G, G28C, U29A, G30C, A31C
DNA 1: CAATCTGAATTCCGGTCTCCC
DNA 2: TGGTGGCTACGACGGGATT

Where a chain is given by its changes, count along the chain named. The list shows a part of the results.

The experiment has as its target T1, RBFOX1 RRM RbFoxmut (Fox-RRM*) (Homo sapiens, UniProt Q9NWB1 109-208, R118D;E147R;N151S;E152T).
T1 sequence: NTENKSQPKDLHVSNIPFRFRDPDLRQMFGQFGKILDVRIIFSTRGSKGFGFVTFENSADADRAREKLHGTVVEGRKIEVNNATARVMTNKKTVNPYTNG
Put plainly: EMSA; HiTS-Eq, 1 nM pool, 10 min; buffer printed only for the single-RNA assays: 10 mM Tris pH 7.5, 150 mM NaCl, 3.4 mM EDTA, 0.001% NP-40, 30 C. As to conditions: tags: His6 N-terminal (pET28a); label: 5' 32P. Summed up: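 Purified wild-type or mutant RbFox RRM at increasing concentrations was equilibrated with 1 nM of 5′-radiolabelled RNA carrying 7 randomized nucleotides for 10 min in 50 µL. Unbound RNA was separated by 8% native PAGE and sequenced. Relative association constants came from read-count changes of each RNA species compared with the control reaction, normalised to the cognate motif.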
(In EMSA bound probe runs differently from free probe, usually more slowly.)
As for B1, the binding signal was 0.0925 KA relative to UGCAUGU. The result for B2 reads 0.0683 KA relative to UGCAUGU; that for B3, 0.159 KA relative to UGCAUGU. As for B4, the figure is 0.0841 KA relative to UGCAUGU; as for B5, 0.0567 KA relative to UGCAUGU.

In the case of B6, the binding signal was 0.134 KA relative to UGCAUGU. Turning to B7, the binding signal was 0.0987 KA relative to UGCAUGU.

As for B8, the binding signal is 0.29 KA relative to UGCAUGU. The result for B9 reads 0.0542 KA relative to UGCAUGU; that for B10, 0.141 KA relative to UGCAUGU; that for B11, 0.0735 KA relative to UGCAUGU. As for B12, the figure is 0.0687 KA relative to UGCAUGU.

In the case of B13, the binding signal was 0.0734 KA relative to UGCAUGU. As for B14, the figure is 0.0858 KA relative to UGCAUGU. The result for B15 reads 0.081 KA relative to UGCAUGU; that for B16, 0.156 KA relative to UGCAUGU.

On to B17, for which the binding signal is 0.0475 KA relative to UGCAUGU. As to B18, the binding signal is 0.0767 KA relative to UGCAUGU. As for B19, the figure is 0.125 KA relative to UGCAUGU; as for B20, 0.0862 KA relative to UGCAUGU. The result for B21 reads 0.0789 KA relative to UGCAUGU. With B22, the binding signal is 0.0837 KA relative to UGCAUGU.

Take B23: the binding signal is 0.0655 KA relative to UGCAUGU.

Turning to B24, the binding signal is 0.138 KA relative to UGCAUGU. The result for B25 reads 0.0799 KA relative to UGCAUGU; that for B26, 0.107 KA relative to UGCAUGU. B27: the binding signal is 0.0539 KA relative to UGCAUGU. As for B28, the figure is 0.856 KA relative to UGCAUGU. In the case of B29, the binding signal is 0.115 KA relative to UGCAUGU. The result for B30 reads 0.123 KA relative to UGCAUGU; that for B31, 0.132 KA relative to UGCAUGU.
